Assay results: PubChem BioAssay AID1159614 (National Center for Advancing Translational Sciences (NCATS), 2016)
Out of some 45,000 compounds screened, about 65 (0.1%) were called active. Calls follow the shape of the dose curve; as a rule, active = well fitted activation curve with a large enough effect; inconclusive = small, poorly fitted or top-dose-only effect; inactive = no such curve, though single readings can be large or run the other way. The list shows a part of the results.

target: Galactocerebrosidase (Homo sapiens) (UniProt P54803); experiment: A Novel Cell-Based Assay to Identify Small Molecules for B -Galactocerebrosidase; conditions: 145M-Twi-hGALC-G270D cells (Twitcher mouse brain line with human GALC G270D), HMU-beta-Gal fluorescence, 48 h; series mostly up to 57.5 µM; activation: at the top concentration; also: 0% is about no effect; nearly all actives have a fitted effect of over 65% in size
How it was run: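 Fluorogenic HMU-b-Gal hydrolysis (0.1 mM final, pH 5.2 citrate-phosphate with 1 mg/mL sodium taurocholate; carbonate stop buffer) measures mutant GALC activity after compound treatment of live 145M-Twi Twitcher brain cells stably carrying human GALC-G270D, with wild-type GALC line alongside; activation sought.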

Sequence of UniProt P54803 (P54803 whole entry, looked up): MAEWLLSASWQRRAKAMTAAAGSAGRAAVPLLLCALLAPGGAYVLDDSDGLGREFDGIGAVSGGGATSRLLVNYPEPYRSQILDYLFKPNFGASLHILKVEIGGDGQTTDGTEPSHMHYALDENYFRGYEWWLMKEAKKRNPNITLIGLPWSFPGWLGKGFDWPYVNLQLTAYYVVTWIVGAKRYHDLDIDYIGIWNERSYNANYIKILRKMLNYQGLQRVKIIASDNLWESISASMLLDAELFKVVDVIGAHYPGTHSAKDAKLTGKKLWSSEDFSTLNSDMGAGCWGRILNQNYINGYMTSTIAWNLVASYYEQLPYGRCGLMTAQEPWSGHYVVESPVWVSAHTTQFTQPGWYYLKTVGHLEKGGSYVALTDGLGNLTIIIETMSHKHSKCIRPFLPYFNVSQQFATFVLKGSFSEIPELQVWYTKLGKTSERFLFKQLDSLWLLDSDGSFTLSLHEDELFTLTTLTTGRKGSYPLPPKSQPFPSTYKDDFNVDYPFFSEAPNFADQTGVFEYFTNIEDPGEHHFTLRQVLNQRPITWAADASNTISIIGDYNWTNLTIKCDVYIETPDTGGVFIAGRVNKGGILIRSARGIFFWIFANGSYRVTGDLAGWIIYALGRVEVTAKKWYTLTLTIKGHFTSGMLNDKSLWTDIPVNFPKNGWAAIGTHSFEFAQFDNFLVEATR

activation, inactive:
COCCCNC(=O)c1ccc(CSc2nc3cccnc3n2Cc2ccc(OC)cc2)cc1 -12.5%
CCOC(=O)c1ccccc1NC(=O)CSc1c(C)cnc2c1c(=O)n(C)c(=O)n2C -14.1%
CC(CNC(=O)CCn1c(=O)c2cccn2c2ccc(F)cc21)c1ccccc1 (configuration not stated) -14.2%
Cc1ccc(C)c(Cn2c(=O)n(-c3ccc(Cl)cc3)c(=O)c3c4c(sc32)CCC4)c1 6.45%
O=C(CCNNC(=O)c1ccncc1)NCc1ccccc1 -11.1%
O=C(Nc1cccc(Cl)c1Cl)c1cc(S(=O)(=O)N2CCCCC2)ccc1F -1.17%
COc1cccc(NC(=O)c2c(-c3ccc(C)cc3)nnc3ccccc23)c1 -8.4%
COc1ccc(CCNC(=O)C2CC(=O)N(CCc3ccccc3)C2)cc1OC (configuration not stated) -6.8%
CCCN(Cc1cccs1)C(=O)Nc1cc(C)ccc1OC -10.2%
O=C(c1ccc2c(c1)N(Cc1ccc(Cl)cc1)C(=O)c1ccccc1S2(=O)=O)N1CCCCCC1 -2.85%
COc1ccc(OC)c(CNC(=O)C2CCN(S(=O)(=O)N3CCCCC3)CC2)c1 -8.46%
CCc1nn(CC(=O)Nc2ccc(C)c(F)c2)c(=O)c2cc3cc(C)ccc3n12 -1.7%
Cc1ccc(-c2onc(C)c2C)cc1S(=O)(=O)NCc1cccs1 1.19%
COc1ccccc1N1CCN(c2nc3ccc(C(=O)c4ccccc4)cc3n3c(C)nnc23)CC1 -13.8%
CCCCN1CC(c2nc3ccccc3n2CCCCOc2ccccc2C)CC1=O (configuration not stated) -32.2%
COc1ccc(OC)c(S(=O)(=O)NCCc2sc(-c3cccnc3)nc2C)c1 -7.25%
CC(=O)OC1=CN(Cc2ccccc2)S(=O)(=O)c2ccccc21 -11.1%
Cc1ccc(N2C(=O)C(CC(=O)Nc3ccc(F)cc3)N(CCC3=CCCCC3)C2=O)cc1 (configuration not stated) -22.8%
CCOc1ccc(-c2nnc(SCC(=O)Nc3ccccc3C(F)(F)F)o2)cc1 -1.37%
Cc1cccc(C)c1NC(=O)c1cc(S(N)(=O)=O)c(Cl)cc1O -8.99%
CCOc1ccc(S(=O)(=O)NCC(c2ccc(N(C)C)cc2)N2CCCC2)cc1 (configuration not stated) -22.5%
Cc1ccc(-c2cn3c(n2)sc2cc(C(=O)NCCC4=CCCCC4)ccc23)c(C)c1 -12.1%
COc1ccccc1N1CCN(C2C(=O)c3ccccc3N2C(C)=O)CC1 (configuration not stated) -3.1%
O=C(COc1ccc(F)cc1)Nc1ccc2nc(SCC(=O)N3CCCC3)sc2c1 -2.7%
COc1cc(OC)c(NS(=O)(=O)c2cc3c(cc2C)NC(=O)CO3)cc1Cl -12.5%
CC(=O)c1ccc(N2CCN(C(=O)C3CCN(S(=O)(=O)c4ccc(Br)s4)CC3)CC2)cc1 -15.2%
COCCn1c(CNC(=O)c2cccc(N(C)C)c2)nc2cccnc21 2.98%
CCOc1ccc(OCC)c(NC(=O)c2nnn(Cc3cc(Br)ccc3OC)c2N)c1 -9.5%
COCCCNC(=O)c1cn(CC(C)C)c(=O)c2c1c1ccccc1n2C 10.5%
CCN(Cc1ccccc1)C(=O)CCS(=O)(=O)c1cc2c(cc1Cl)NC(=O)CO2 -11.2%
Cc1ccc(NC(=O)c2nc(S(C)(=O)=O)ncc2N(Cc2ccco2)Cc2ccccc2F)c(C)c1 -18.6%
Cc1ccc(CCNC(=O)c2ccc3c(=O)n(-c4ccc(C)cc4)c(=O)[nH]c3c2)cc1 -12.4%
Cc1ccccc1S(=O)Cc1ccc(C(=O)NC2CCCCCC2)o1 (configuration not stated) -4.51%
CCOc1cccc2sc(NC(=O)c3ccc(S(=O)(=O)N4CCCc5ccccc54)cc3)nc12 -8.32%
CCCOc1ccc(C2c3c(oc4ccccc4c3=O)C(=O)N2c2ccc(C)cn2)cc1OCC (configuration not stated) -7.87%
Cc1nc2ccccn2c(=O)c1CCN1CCC(C(=O)c2ccc(F)cc2)CC1 -19.1%
O=C(Nc1ccc(C(F)(F)F)cc1)c1cc(S(=O)(=O)NC2CCCCCC2)ccc1F -5.55%
CCOC(=O)c1ccc(CN(Cc2ccc(F)cc2)S(=O)(=O)c2ccc(F)cc2)cc1 -17.2%
CCOC(=O)c1c(C)[nH]c(C)c1S(=O)(=O)N1CCC(C(=O)N2CCN(c3cccc(C)c3)C(C)C2)CC1 (configuration not stated) -9.18%
Cc1ccc(C)c(NC(=O)Nc2nnc(N(CC(C)C)CC(C)C)s2)c1 -15.1%
O=C(Cn1cc(SCc2cccc(F)c2)c2ccccc21)N1CCCC1 -0.791%
CCC(=O)c1ccc2c(c1)N(CCCN(C)C)c1ccccc1S2 -13.6%
Cc1ccc(C(=O)Nc2ccc3nc(SCC(=O)N4CCc5ccccc54)sc3c2)cc1 -14.4%
Cc1ccc2c(CNCc3cccc(Cl)c3)c(C(=O)O)n(Cc3ccc(F)cc3Cl)c2c1 -2.34%
Cc1cc2oc(C(=O)Nc3sc4c(c3C(=O)NCc3ccco3)CCC4)cc(=O)c2cc1C -10.1%
COc1ccc2oc(=O)c(-c3nc(-c4cc(OC)c(OC)c(OC)c4)no3)cc2c1 -10.5%
Cc1ccccc1N1CCN(CCc2nnc3n2CCCC3)CC1 -12.4%
O=C(CNS(=O)(=O)c1cccs1)N1CCN(c2ccccc2Cl)CC1 -11.5%
COc1cccc(NC(=O)Nc2ccc3c(c2)N(C)C(=O)c2ccccc2S3)c1 -12.1%
CC1CCN(C(=O)Cn2c(-c3cccs3)cc3cc(Cl)ccc32)CC1 -17.9%
COc1ccc(-c2c(C)c3ccc(O)c(CN4CCOCC4)c3oc2=O)cc1OC -7.52%
CCOc1ccc(-c2nnc(SCC(=O)Nc3cccc(C#N)c3)o2)cc1 -2.67%
CCCCOC(=O)c1c(C)oc2c1cc(NS(=O)(=O)c1cc(OC)ccc1OC)c1ccccc12 -19.5%
O=C(CN1C(=O)c2ccccc2Sc2ccc(C(=O)N3CCOCC3)cc21)Nc1ccc(Cl)cc1F -5.46%
CC(C)(C)c1ccc(C(=O)Nc2ccc(-c3nc4ccccc4o3)c(O)c2)cc1 0.465%
Cc1cccc(NC(=O)c2sc3ncnc(N(C)C4CCCCC4)c3c2C)c1C -7.83%
O=C(CSc1nccn1Cc1ccc(F)cc1)NCc1ccco1 1.29%
Cc1cc(C)c2c(c1)c(C)cc1nnc(SCC(=O)c3ccccc3)n12 -15%
Cc1ccc(C)c(NC(=O)C(CC(C)C)N2Cc3ccccc3C2=O)c1 (configuration not stated) -7.84%
CCCN1Cc2cccc(C(=O)Nc3cc(Cl)ccc3C)c2C1=O -9.15%
Cc1ccc2c(c1)N(C(=O)CCC(=O)NCc1cccc(F)c1)CC(C)O2 (configuration not stated) -13.5%
COc1ccc(CC(=O)Nc2nc3c(s2)CCCC3)cc1 6.63%
CCC(=O)N1CCc2cc(S(=O)(=O)CCC(=O)N3CCN(c4cccc(C)c4C)CC3)ccc21 1.37%
Cc1cccc(C)c1NC(=O)c1cc(S(=O)(=O)N2CCc3ccccc3C2)ccc1F 16.5%
CCN(CC)c1ccc2cc(-c3nc4sc5c(c4c(=O)[nH]3)CCC(C(C)(C)C)C5)c(=O)oc2c1 (configuration not stated) -10.1%
COc1cccc(NC(=O)c2c(C)oc3nc(C)nc(N4CCCC4)c23)c1 1.13%
CC(=O)c1cccc(NC(=O)c2ccc3nc(Cc4ccccc4)oc3c2)c1 -27.5%
CCCCOc1ccc(C(=O)N(Cc2ccccc2)C2CCS(=O)(=O)C2)cc1 (configuration not stated) 1.22%
CCn1c(=O)c2sccc2n2c(CCCC(=O)N3CCN(c4ccc(F)cc4)CC3)nnc12 2.03%
CCOc1ccc(-c2cc3c(=O)n(CC(=O)NCc4ccc(F)cc4)ccn3n2)cc1 -12.4%
COc1cccc2cc(-c3nc(-c4ccc(Cl)cc4)cs3)c(=O)oc12 25.3%
CCOC(=O)c1cccc(NC(=O)CCS(=O)(=O)c2ccc3c(c2)CCN3C(=O)CC)c1 1.38%
O=C(c1ccc(Cl)cc1)n1nc(-c2cccnc2)nc1NCc1ccc(F)cc1 -14.4%
Cc1csc2nc(COC(=O)CNC(=O)c3ccccc3)cc(=O)n12 1.04%
COc1ccc(N2CCN(Cc3nc4c(c(=O)[nH]c(=O)n4C)n3Cc3ccccc3C)CC2)cc1 9.75%
Cc1ccc(O)c(NC(=O)C2=CC(c3ccco3)=NS(=O)(=O)N2C)c1 -9.11%
COC(=O)c1ccc(NC(=O)C(=O)NCCc2csc(-c3ccc(F)cc3)n2)cc1 -10.9%
O=C(CSc1ncccc1C(=O)Oc1ccccc1Cl)Nc1ccc(C(F)(F)F)cc1Cl -14.5%
CCN(CC)S(=O)(=O)c1ccc2c(c1)N(CC(=O)Nc1cccc(C#N)c1)C(=O)CO2 -13.5%
FC(F)(F)c1cc(-c2ccccc2)nc2cc(-c3ccccc3)nn12 -4.62%
CCc1nnc(NC(=O)CSc2nc3c([nH]c4ccccc43)c(=O)n2-c2ccc(Cl)cc2)s1 -21.4%
O=c1oc2ccccc2cc1-c1cn2cc(Cc3cc(Cl)ccc3Cl)sc2n1 -2.82%
Cc1ccc(CN(C(=O)COc2ccccc2[N+](=O)[O-])c2ccccn2)o1 -18.1%
COc1ccc(NC(=O)C2CCCN(S(=O)(=O)c3ccc(F)cc3)C2)cc1 (configuration not stated) -12.5%
CCCCSc1nc2sc3c(c2c(=O)n1-c1ccccc1C)CC(C)(C)OC3 -7.21%
Cc1cc(F)ccc1NC(=O)Cn1cc(S(=O)(=O)NC(C)C)c(S(=O)(=O)NC(C)C)c1 -16%
Cc1ccc2onc(CC(=O)N3CCN(c4cccc(Cl)c4)CC3)c2c1 -5.43%
COc1ccc(NC(=O)Cn2c(=O)oc3cc(S(=O)(=O)N4CCCCCC4)ccc32)cc1OC -9.01%
COc1cccc(C(=O)Nc2c(C(=O)Nc3ccc(F)cc3)oc3ccccc23)c1OC 1.86%
CCN(Cc1ccccc1)S(=O)(=O)c1cc(Br)cc2c1N(C(=O)C1CC1)CC2 -0.746%
Cc1ccc(NC(=O)c2cnc(N3CCCC3)nc2C)cc1F -1.93%
CCOc1ccc(C(=O)Nc2nnc(SCc3cc(=O)n4ccccc4n3)s2)cc1 -14.9%
O=C(c1ccccc1)N1CCN(CCc2ccccn2)CC1 -16.6%
COc1ccc(NC(=O)CNC(=O)Cn2c(C)cc3ccccc3c2=O)c(OC)c1 -7.06%
CCOc1ccc(-n2cc(-c3ccccc3)c3c(Nc4cccc(F)c4)ncnc32)cc1 -5.39%
O=c1c2cc3c(cc2nc2sc(Nc4cccc([N+](=O)[O-])c4)nn12)OCO3 -0.158%
CC(=O)Nc1ccc(NC(=O)CN(C)S(=O)(=O)c2ccc3c(c2)CCCC(=O)N3)cc1 -14.9%
